From patent US10299477B2 (priority 2015, dated 2019)

Experiments:
[1] = test system: Phytophthora infestans; assay type: in vivo; conditions: 5-10 days after inoculation; for Test F control value: Late blight on tomato, 250 ppm sprayed before inoculation; for Test F (control value class): late blight on tomato, Phytophthora infestans, 250 ppm spray
[2] = test system: Magnaporthe grisea; assay type: in vivo; conditions: for Test A control value: Blast on rice; for Test A (control value class): rice blast, Magnaporthe grisea, 250 ppm spray

SMILES	Test F control value [1]	Test A control value [2]	Test F (control value class) [1]	Test A (control value class) [2]
CCn1c(-c2c(F)cccc2Br)c(-c2cc(OC)cc(OC)c2)ccc1=O [Compound 175]	L (L shows 50% or less of control values)	H (H shows more than 50% of control values)		
CCn1c(-c2c(F)cccc2Br)c(-c2cc(OC)cc(OC)c2Br)ccc1=O [Compound 176]	H (H shows more than 50% of control values)	H (H shows more than 50% of control values)		
CCn1c(-c2c(F)cccc2Br)c(-c2cc(OC)cc(OC)c2Cl)ccc1=O [Compound 177]	L (L shows 50% or less of control values)	H (H shows more than 50% of control values)		
CCn1c(-c2c(F)cccc2F)c(-c2cccc(Cl)c2)cc(Cl)c1=O [Compound 178]	L (L shows 50% or less of control values)	H (H shows more than 50% of control values)		
CCn1c(-c2c(F)cccc2F)c(-c2cccc(Cl)c2)cc(Br)c1=O [Compound 179]	L (L shows 50% or less of control values)	H (H shows more than 50% of control values)		
Cc1ccccc1-c1ccc(=O)n(C)c1-c1c(F)cccc1F [Compound 180]	H (H shows more than 50% of control values)	H (H shows more than 50% of control values)		
Cc1ccccc1-c1cc(Cl)c(=O)n(C)c1-c1c(F)cccc1F [Compound 181]	L (L shows 50% or less of control values)	H (H shows more than 50% of control values)		
Cc1ccccc1-c1cc(Br)c(=O)n(C)c1-c1c(F)cccc1F [Compound 182]	L (L shows 50% or less of control values)	H (H shows more than 50% of control values)		
COc1cc(OC)cc(-c2ccc(=O)n(C)c2-c2c(F)cccc2Br)c1 [Compound 183]	L (L shows 50% or less of control values)	H (H shows more than 50% of control values)		
COc1cc(OC)c(Br)c(-c2ccc(=O)n(C)c2-c2c(F)cccc2Br)c1 [Compound 184]	H (H shows more than 50% of control values)	H (H shows more than 50% of control values)		
Cn1c(-c2c(F)cccc2F)c(-c2c(F)c(F)c(F)c(F)c2F)ccc1=O [Compound 373]			L (L shows 50% or less of control values)	H (H shows more than 50% of control values)
Cn1c(-c2c(F)cccc2F)c(-c2c(F)c(F)c(F)c(F)c2F)cc(Cl)c1=O [Compound 374]			L (L shows 50% or less of control values)	H (H shows more than 50% of control values)
CCn1c(-c2c(F)cccc2F)c(-c2cc(OC)ccc2Cl)cc(SC)c1=O [Compound 375]			L (L shows 50% or less of control values)	H (H shows more than 50% of control values)
CCOc1ccc(Cl)c(-c2cc(Cl)c(=O)n(CC)c2-c2c(F)cccc2F)c1 [Compound 376]			L (L shows 50% or less of control values)	H (H shows more than 50% of control values)
COc1cc(OC)c(Cl)c(-c2ccc(=O)n(CC(F)(F)F)c2-c2c(F)cc(F)cc2F)c1 [Compound 377]			L (L shows 50% or less of control values)	H (H shows more than 50% of control values)
CCOc1cc(F)c(-c2c(-c3cc(OC)cc(OC)c3Cl)ccc(=O)n2CC)c(F)c1 [Compound 378]			L (L shows 50% or less of control values)	H (H shows more than 50% of control values)
COc1cc(OC)c(Cl)c(-c2ccc(=O)n(/C=C/F)c2-c2c(F)cc(F)cc2F)c1 [Compound 379]			H (H shows more than 50% of control values)	H (H shows more than 50% of control values)
COc1cc(OC)c(Cl)c(-c2ccc(=O)n(/C=C\F)c2-c2c(F)cc(F)cc2F)c1 [Compound 380]			L (L shows 50% or less of control values)	H (H shows more than 50% of control values)
CCn1c(-c2c(F)cc(F)cc2F)c(-c2cc(F)ccc2Cl)cc(Br)c1=O [Compound 381, 3-bromo-5-(2-chloro-5-fluorophenyl)-1-ethyl-6-(2,4,6-trifluorophenyl)pyridine-2(1H)-one]			L (L shows 50% or less of control values)	H (H shows more than 50% of control values)
CCn1c(-c2c(F)cc(OC)cc2F)c(-c2cc(F)ccc2Cl)ccc1=O [Compound 382]			L (L shows 50% or less of control values)	H (H shows more than 50% of control values)
O=c1ccc(-c2c(F)c(F)c(F)c(F)c2F)c(-c2c(F)cccc2F)n1CC(F)F [Compound 383]			L (L shows 50% or less of control values)	H (H shows more than 50% of control values)

SMILES	Test F control value [1]	Test A control value [2]	Test F (control value class) [1]	Test A (control value class) [2]
O=c1c(Cl)cc(-c2c(F)c(F)c(F)c(F)c2F)c(-c2c(F)cccc2F)n1CC(F)F [Compound 384]			L (L shows 50% or less of control values)	H (H shows more than 50% of control values)
CCn1c(-c2c(F)cccc2F)c(-c2c(F)cccc2Cl)ccc1=O [Compound 385]			H (H shows more than 50% of control values)	H (H shows more than 50% of control values)
CCn1c(-c2c(F)cc(OC)cc2F)c(-c2cc(F)ccc2Cl)cc(Cl)c1=O [Compound 386]			L (L shows 50% or less of control values)	H (H shows more than 50% of control values)
CCn1c(-c2c(F)cccc2F)c(-c2cc(OC)ccc2Cl)cc(S(C)(=O)=O)c1=O [Compound 387]			L (L shows 50% or less of control values)	H (H shows more than 50% of control values)
O=C1CCC(c2cc(F)ccc2Cl)=C(c2c(F)cccc2F)N1CC(F)F [Compound 388]			L (L shows 50% or less of control values)	H (H shows more than 50% of control values)
CCCN1C(=O)CCC(c2cc(OC)ccc2Cl)=C1c1c(F)cccc1F [Compound 389]			L (L shows 50% or less of control values)	H (H shows more than 50% of control values)
O=c1ccc(-c2cc(F)ccc2Cl)c(-c2c(F)cccc2F)n1CC(F)F [Compound 391]			L (L shows 50% or less of control values)	H (H shows more than 50% of control values)
O=c1c(Cl)cc(-c2cc(F)ccc2Cl)c(-c2c(F)cccc2F)n1CC(F)F [Compound 392]			L (L shows 50% or less of control values)	H (H shows more than 50% of control values)
O=c1c(Br)cc(-c2cc(F)ccc2Cl)c(-c2c(F)cccc2F)n1CC(F)F [Compound 393]			L (L shows 50% or less of control values)	H (H shows more than 50% of control values)
CCCCn1c(-c2c(F)cccc2F)c(-c2cc(OC)ccc2Cl)ccc1=O [Compound 394]			L (L shows 50% or less of control values)	H (H shows more than 50% of control values)
CCCCn1c(-c2c(F)cccc2F)c(-c2cc(OC)ccc2Cl)cc(Cl)c1=O [Compound 395]			L (L shows 50% or less of control values)	H (H shows more than 50% of control values)
CCCCn1c(-c2c(F)cccc2F)c(-c2cc(OC)ccc2Cl)cc(Br)c1=O [Compound 396]			L (L shows 50% or less of control values)	H (H shows more than 50% of control values)
CCn1c(-c2c(F)cccc2F)c(-c2c(F)cccc2Cl)cc(Cl)c1=O [Compound 397]			L (L shows 50% or less of control values)	H (H shows more than 50% of control values)
Cn1c(-c2c(F)cccc2F)c(-c2c(F)cccc2Cl)ccc1=O [Compound 398]			L (L shows 50% or less of control values)	H (H shows more than 50% of control values)
CCCn1c(-c2c(F)cccc2F)c(-c2cc(OC)ccc2Cl)ccc1=O [Compound 399]			L (L shows 50% or less of control values)	H (H shows more than 50% of control values)
CCCn1c(-c2c(F)cccc2F)c(-c2cc(OC)ccc2Cl)cc(Cl)c1=O [Compound 400]			L (L shows 50% or less of control values)	H (H shows more than 50% of control values)
CCCn1c(-c2c(F)cccc2F)c(-c2cc(OC)ccc2Cl)cc(Br)c1=O [Compound 401]			L (L shows 50% or less of control values)	H (H shows more than 50% of control values)
COCn1c(-c2c(F)cccc2F)c(-c2cc(OC)ccc2Cl)ccc1=O [Compound 402]			L (L shows 50% or less of control values)	H (H shows more than 50% of control values)
CCn1c(-c2c(F)cc(F)cc2F)c(-c2cc(OC)ccc2Cl)ccc1=O [Compound 403]			L (L shows 50% or less of control values)	H (H shows more than 50% of control values)
CCn1c(-c2c(F)cc(F)cc2F)c(-c2cc(OC)ccc2Cl)cc(Cl)c1=O [Compound 404]			L (L shows 50% or less of control values)	H (H shows more than 50% of control values)
Cn1c(-c2c(F)cccc2F)c(-c2c(F)cccc2Cl)cc(Cl)c1=O [Compound 405]			L (L shows 50% or less of control values)	H (H shows more than 50% of control values)
